The text below walks through data of the supplement of paper PMC3334620.

Over roughly 33,000 sequences, “E-score (-0.5 to 0.5)” has its median near -0.035; the highest 2% begin near 0.34. The list shows a part of the results.

The target in this experiment is T1, Mot3 (UniProt P54785).
T1 sequence: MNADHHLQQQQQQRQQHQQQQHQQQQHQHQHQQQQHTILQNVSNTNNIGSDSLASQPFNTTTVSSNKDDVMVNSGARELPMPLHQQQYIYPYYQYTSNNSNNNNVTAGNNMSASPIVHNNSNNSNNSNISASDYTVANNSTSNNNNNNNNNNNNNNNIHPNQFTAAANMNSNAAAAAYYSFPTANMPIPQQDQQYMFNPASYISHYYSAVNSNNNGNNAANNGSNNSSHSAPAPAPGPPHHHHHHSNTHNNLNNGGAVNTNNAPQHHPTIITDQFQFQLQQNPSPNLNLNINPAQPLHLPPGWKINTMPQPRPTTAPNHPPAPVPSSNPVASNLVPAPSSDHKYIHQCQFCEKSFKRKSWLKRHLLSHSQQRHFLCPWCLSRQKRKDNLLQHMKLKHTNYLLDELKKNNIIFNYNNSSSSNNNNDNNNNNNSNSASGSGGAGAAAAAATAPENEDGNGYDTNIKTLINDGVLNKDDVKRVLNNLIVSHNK
Put plainly: PBM E-score (8-mer binding enrichment) (E-score (-0.5 to 0.5)); higher = stronger / more preferred TF binding; most listed sequences are background and not binding sites. Particulars: protein concentration: 200 nM; construct: GST-full length. The method, boiled down:
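Yeast transcription factors carrying a GST tag, as full-length proteins or DNA-binding domains, were produced by PURExpress in vitro transcription/translation. About 100-200 nM protein was applied to universal all-10-mer Agilent arrays, double-stranded by primer extension on fresh or once-stripped slides. Bound protein was detected with fluorescent anti-GST, and scans were normalised with masliner. The Universal PBM Analysis Suite gave each ungapped eight-base word, pooled with its reverse complement, an E-score, a modified Wilcoxon-Mann-Whitney statistic.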
For the sequence ACCCGAGC, the “PBM E-score” value was -0.158.
Under AGAACTAT stands -0.0425; under TAAGATCA, -0.0767.
Under GCAAGCCA stands 0.0317; under GAATATGC, -0.152; under GAGCGTTA, -0.032.
Under ATTGGCAC stands -0.068; under CTACGGAC, -0.186; under GATACGGA, 0.075.
For the sequence ATTACGGG, the “PBM E-score” value is -0.00149.
Under AGTTGTAT stands 0.196.
As for CCTGTTGA, the “PBM E-score” value was 0.203.
To AGAGTACA belongs 0.107; to ACCCCGCA, -0.035.
To AGACACCA belongs 0.0341; to AGCAATAA, -0.174; to GACTTGCA, 0.0227.
To ATGCATGC belongs 0.0276; to TCGACCCA, -0.0787; to AACGGAAC, -0.0752.
On to AAAAACAG, for which the “PBM E-score” value turned out to be 0.0889.
Under AGGCAAAT stands 0.479; under CTCGCTAA, 0.00347.
Consider ATTCAAAT, for which the “PBM E-score” value was -0.0966.
As for AGATCGCT, the “PBM E-score” value is -0.174.
To CCAAGTCG belongs -0.155; to AATTATGA, 0.0313; to GCAGATAA, -0.0165.
Turning to TCCACAGA, the “PBM E-score” value was -0.119.
In the case of GAACTCCA, the “PBM E-score” value was -0.0184.
Take CGGAGACG: the “PBM E-score” value is -0.065.
As for CGCCACTA, the “PBM E-score” value is -0.196.
To CGAACTGA belongs -0.155.
Under ATCGTGCG stands 0.0644; under CGCCTAAG, -0.129; under GTATAAGA, 0.0722.
To GACCCTCA belongs -0.292; to AATGCTGA, -0.0191; to GCCGCTGA, -0.238.
For TGCCCGCA, the “PBM E-score” value turned out to be 0.178.
To ATATACGC belongs 0.217; to CGAAGTCC, -0.212.
Under AGCTTACG stands 0.00492; under GAGACAGC, -0.0888; under CCCACCTC, -0.245.
With CCCCGCAA, the “PBM E-score” value amounted to 0.0191.
Under CCACCTTC stands -0.175; under CAGTGAGG, -0.193; under GGTTCGAA, 0.0136.
For CCTCTCAA, the “PBM E-score” value was -0.097.
Under TCTGTCCA stands -0.229; under AGTCCCAT, -0.115; under AAATCTCG, 0.189.
Under TCAGGGGA stands -0.23.
Under CAGGAGTA stands 0.083.
Regarding AGAGTTTC, the “PBM E-score” value is -0.198.
Turning to GAACCCTA, the “PBM E-score” value came to 0.0624.
Under CGGATTTC stands -0.235.
Under GTCCGCAC stands -0.095; under AATAGAAA, -0.0461.
Under CACAAAGC stands 0.168.
For the sequence CAATTGCA, the “PBM E-score” value is -0.0452.
Under GATGAGCA stands 0.00753.
As for ACGGACGT, the “PBM E-score” value was -0.106.
Under CACTTGCG stands -0.115; under ACAAGCAG, 0.164.
Take AGGCGTAG: the “PBM E-score” value was -0.068.
Under CGCTCGGC stands -0.277; under CCCGACCA, -0.228; under CAGTGGAG, -0.218.
To CGGCTTCA belongs -0.131; to ATGTGCGC, 0.0448.
Under AAGTTAAT stands 0.135.
AGCTTTGC: the “PBM E-score” value is -0.0939.
Under AAATTGTC stands 0.117.
To AAGTCCCG belongs -0.132; to ACGAGAAA, 0.159.
To ACTGTTCC belongs 0.0173.
As to GAGCCTCC, the “PBM E-score” value is -0.191.
On to TAGATGCA, for which the “PBM E-score” value was -0.238.
To ACATATCC belongs 0.111; to TGCGGAAA, -0.154.
CACTAGAG: the “PBM E-score” value was -0.0736.
Under AGTCGCGG stands -0.251; under TCTCGAAA, -0.235.
For GGTGGAAC, the “PBM E-score” value was -0.0846.
Under CGGGCTAG stands -0.196.
Take AACAGCGG: the “PBM E-score” value was -0.203.
To ACGTTACA belongs 0.258.
To ATTGGTAC belongs -0.114; to TACTCAAA, 0.0585.
Under CCGTGTTC stands 0.27; under CCAGCCTA, -0.287.
On to ACCGATCA, for which the “PBM E-score” value was -0.0834.
Turning to ACTTTGCA, the “PBM E-score” value was 0.127.
To AACGAATC belongs 0.0331; to TACATGCA, 0.361; to GATTGAAC, 0.142.
Under ACGATATC stands -0.0186.
To CCCTTCCA belongs -0.236; to AATTGTTA, 0.199.
Regarding CAATAAAC, the “PBM E-score” value was -0.0282.
To AACCCCGC belongs -0.102.
In the case of AATGCTCG, the “PBM E-score” value was found to be 0.0502.
As for CAAAAACA, the “PBM E-score” value worked out at 0.0805.
As to ACCCAACT, the “PBM E-score” value was -0.0551.
To GAGTAAGC belongs -0.183; to ATACTCAC, -0.0881.
ATGAGGGG: the “PBM E-score” value was 0.00764.
